Test results reported in PubChem BioAssay AID504332 (National Center for Advancing Translational Sciences (NCATS), 2011).
About 31,000 (8.9%) of roughly 350,000 compounds were called active. This list was built around the results that the source calls inconclusive (neither active nor inactive); the mix of calls is not that of the screen. Calls come from the whole dose curve; as a rule, active = well fitted inhibition curve with a large enough effect; inconclusive = small, poorly fitted or top-dose-only effect; inactive = no such curve, though single readings can be large or run the other way. A potency beside an inconclusive call is a rough fit, not a confirmed value.

These compounds were tested against Histone-lysine N-methyltransferase EHMT2 (Homo sapiens) (UniProt Q96KQ7) (assay: qHTS Assay for Inhibitors of Histone Lysine Methyltransferase G9a). Details: G9a H3K9 monomethylation, AlphaScreen, 2 h; activity, negative = inhibition: at 59 µM (top of the series) unless noted.
Chain of UniProt Q96KQ7 (Q96KQ7 whole entry, looked up): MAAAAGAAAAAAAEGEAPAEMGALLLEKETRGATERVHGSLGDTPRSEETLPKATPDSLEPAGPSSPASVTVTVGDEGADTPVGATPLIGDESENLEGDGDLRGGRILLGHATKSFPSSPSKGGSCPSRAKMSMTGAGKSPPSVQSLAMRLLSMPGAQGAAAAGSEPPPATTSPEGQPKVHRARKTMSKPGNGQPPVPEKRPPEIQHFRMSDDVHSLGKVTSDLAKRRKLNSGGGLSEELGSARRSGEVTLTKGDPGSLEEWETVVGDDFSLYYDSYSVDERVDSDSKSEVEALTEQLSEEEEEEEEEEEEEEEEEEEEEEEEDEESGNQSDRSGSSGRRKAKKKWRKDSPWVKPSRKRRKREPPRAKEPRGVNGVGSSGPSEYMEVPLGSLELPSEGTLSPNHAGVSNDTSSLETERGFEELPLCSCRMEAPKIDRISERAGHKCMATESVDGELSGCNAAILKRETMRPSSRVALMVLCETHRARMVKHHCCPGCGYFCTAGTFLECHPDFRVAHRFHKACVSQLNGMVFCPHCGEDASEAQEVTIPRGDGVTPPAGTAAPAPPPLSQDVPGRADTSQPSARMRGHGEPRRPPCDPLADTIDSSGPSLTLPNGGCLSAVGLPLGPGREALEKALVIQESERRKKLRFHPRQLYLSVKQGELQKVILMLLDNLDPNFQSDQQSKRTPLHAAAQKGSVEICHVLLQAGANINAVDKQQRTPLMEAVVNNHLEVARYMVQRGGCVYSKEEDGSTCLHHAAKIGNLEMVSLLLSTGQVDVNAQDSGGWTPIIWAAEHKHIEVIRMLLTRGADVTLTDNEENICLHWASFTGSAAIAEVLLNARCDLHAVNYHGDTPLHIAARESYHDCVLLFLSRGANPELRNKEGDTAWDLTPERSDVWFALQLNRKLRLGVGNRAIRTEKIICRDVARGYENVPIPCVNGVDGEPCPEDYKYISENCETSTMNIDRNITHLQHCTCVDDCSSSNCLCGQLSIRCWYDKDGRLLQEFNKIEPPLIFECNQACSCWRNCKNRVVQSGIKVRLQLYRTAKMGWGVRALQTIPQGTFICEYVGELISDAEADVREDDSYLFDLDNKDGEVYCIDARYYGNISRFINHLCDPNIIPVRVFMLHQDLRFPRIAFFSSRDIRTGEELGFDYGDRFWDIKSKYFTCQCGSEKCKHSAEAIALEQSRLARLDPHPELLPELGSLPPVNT
Procedure, shortened: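 Using a bead-based AlphaScreen, monomethylated H3K9 product from 2 h room-temperature reactions (G9a 20 nM, peptide 500 nM, SAM 20 uM) was detected with 0.5 ug/mL rabbit anti-H3K9me1 antibody.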
% is set by controls: 0 for no effect and ±100 for the full control effect; potency is the fitted concentration of half-maximal effect; tags give direction and shape of the fitted curve.
Note: nearly all actives have a fitted effect of over 75% in size.

Row | SMILES | Potency | activity, negative = inhibition
1 | COCCn1cnnc1SCC(=O)Nc1ccc(N2CCCCC2)cc1 | inconclusive: 3.16 µM [inhibitor, full curve] | 
2 | CCC(Cc1ccccc1)NCc1c(C(=O)O)c(C)n(Cc2ccccc2)c1C (configuration not stated) | inconclusive: 50.1 µM [inhibitor, partial curve, poor fit] | 
3 | Cc1ccc2c(N)c(C(=O)N(c3ccccc3)c3ccccc3)sc2n1 | active: 14.1 µM | 
4 | O=C(Nc1ccc(Cl)c(S(=O)(=O)N2CCOCC2)c1)c1ccccn1 | inconclusive: 12.6 µM [inhibitor, partial curve, poor fit] | 
5 | C=C(C)C(=O)O[C@H]1C/C(C)=C\C(=O)/C=C(\C)[C@H](O)[C@@H]2OC(=O)C(=C)[C@@H]21 | inconclusive: 11.2 µM [inhibitor, single point] | 
6 | CCS(=O)(=O)Nc1ccc(-c2cc(-c3ccccc3)c3cc(C)ccc3n2)cc1 | inconclusive: 89.1 µM [inhibitor, single point] | 
7 | Cc1ccc(NC(=O)c2cccnc2C(=O)Nc2ccc(C)cc2)cc1 | inconclusive: 89.1 µM [inhibitor, partial curve, poor fit] | 
8 | O=C(Nc1cccc(-c2cn3c(n2)SCC3)c1)c1ccc2c(c1)OCO2 | active: 44.7 µM | 
9 | CC(=O)c1ccc(OCCCC(=O)NNC(=O)c2ccccn2)cc1 | inconclusive: 0.891 µM [inhibitor, full curve, poor fit] | 
10 | Cc1ccc(CNC(=O)C2CCCN(Cc3cnn(-c4ccccc4)c3-n3cccc3)C2)cc1 (configuration not stated) | inconclusive: 89.1 µM [inhibitor, single point] | 
11 | COc1cc(CNc2ccc(C(=O)O)cc2)cc(Br)c1OCC(=O)NC(C)(C)C | inactive | 
12 | CCC(c1nnc(SCCNCCO)n1CCN1CCOCC1)N(C)C (configuration not stated) | inactive | 
13 | Nc1nnnn1/N=C/c1ccccn1 | inconclusive: 3.55 µM [inhibitor, single point] | 
14 | CCOC(=O)C1=C(CN2CCN(C(=O)c3ccco3)CC2)NC(=O)NC1c1ccc(OC)cc1 (configuration not stated) | inactive | 
15 | CCOc1ccc(C(=O)Nc2ccc(-c3nc4ccccc4[nH]3)cc2)cc1[N+](=O)[O-] | inactive | 
16 | CCOc1cc(/C=C2\COc3ccccc3C2=O)ccc1OCC(=O)N(C)C | inactive | 
17 | CC(CN(C)Cc1ccccc1)OC(=O)c1cccc(F)c1 (configuration not stated) | inconclusive: 8.91 µM [inhibitor, full curve, poor fit] | 
18 | CCCN1C(=O)C2(c3ccccc31)c1c(oc3cc(C)c(C)cc3c1=O)C(=O)N2CCCOC (configuration not stated) | inactive | 
19 | Cc1ccc(OCCCCc2c(C)n[nH]c2C)cc1 | inconclusive: 79.4 µM [inhibitor, single point] | 
20 | CC1=C(C(=O)OCc2ccccc2)C(c2ccc(C)o2)C2=C(CCCC2=O)N1 (configuration not stated) | inconclusive: 25.1 µM [inhibitor, single point] | 
21 | COc1ccc2[nH]c(=O)c(CNc3ccc(C)cc3C)cc2c1 | active: 20 µM | 
22 | Cc1ccc(S(=O)(=O)NCCOCCNS(=O)(=O)c2ccc(C)cc2)cc1 | inactive | 
23 | COc1cc(C(=O)NCCC(=O)N2CCC3(CC2)NCCc2[nH]cnc23)cc(OC)c1OC | inconclusive: 89.1 µM [inhibitor, single point] | 

Row | SMILES | Potency | activity, negative = inhibition
24 | Nc1cc(=O)[nH]c(SCC(=O)N2CCCc3ccccc32)n1 | inactive | 
25 | O=C(O)/C(=C\c1ccc(Cl)cc1)c1ccc(S(=O)(=O)N2CCCC2)s1 | inconclusive: 28.2 µM [inhibitor, single point] | 
26 | Cn1c(C(=O)N2CCN(C(=O)c3ccco3)CC2)cc2c(=O)n3ccccc3nc21 | inconclusive: 7.08 µM [inhibitor, single point] | 
27 | CCOCCCNC(=S)Nc1ccc2nc(N3CCOCC3)cc(C)c2c1 | inconclusive: 79.4 µM [inhibitor, single point] | 
28 | N#Cc1sc2nc(-c3ccccc3)cc(-c3ccco3)c2c1N | active: 8.91 µM | 
29 | O=C(/C=C/Nc1ccccc1C(F)(F)F)c1ccco1 | inconclusive: 44.7 µM [inhibitor, partial curve, poor fit] | 
30 | CCn1c(SCC(=O)NCc2ccco2)nc2c(c1=O)SC(C)C2 (configuration not stated) | active: 14.1 µM | 
31 | COc1ccc(OC)c(NC(=O)CSc2nnnn2-c2ccccc2F)c1 | inconclusive: 56.2 µM [inhibitor, partial curve, poor fit] | 
32 | O=C(Cc1ccc(NS(=O)(=O)c2ccc(F)cc2)cc1)NCc1ccccc1 | inconclusive: 89.1 µM [inhibitor, single point] | 
33 | COc1cccc(NC(=O)COC(=O)/C=C/c2c(C)nn(-c3ccccc3)c2C)c1 |  | inconclusive: -51.4% [inhibitor] [at 12.7 µM]
34 | COc1ccc(OC)c(NC(=O)[C@H](Cc2ccccc2)N2Cc3ccccc3C2=O)c1 | inconclusive: 17.8 µM [inhibitor, partial curve] | 
35 | CC(C)OCCCNc1ncc2c(n1)CC(c1cccs1)CC2=O (configuration not stated) | inconclusive: 44.7 µM [inhibitor, partial curve, poor fit] | 
36 | CCOc1ccc(C(=O)Nc2cc(C)ccn2)cc1 | inconclusive: 44.7 µM [inhibitor, partial curve, poor fit] | 
37 | CCNC(=O)c1ccc(-n2c(-c3ccccc3)cc3c2CCCCC3)cc1 | inactive | 
38 | O=C(c1cc(COc2ccc3c(c2)CCCC3)on1)N1CCCC1 | inconclusive: 1.12 µM [inhibitor, partial curve, poor fit] | 
39 | CN1CCc2c(sc3nc(SCC(=O)NCc4ccco4)n(-c4ccccc4)c(=O)c23)C1 | active: 44.7 µM | 
40 | NS(=O)(=O)c1ccc(CCNC(=O)COC(=O)CCSc2ccc(Cl)cc2)cc1 | inconclusive: 0.355 µM [inhibitor, full curve, poor fit] | 
41 | O=C(CSc1nc2ccccc2o1)NCC1CCCO1 (configuration not stated) | inconclusive: 20 µM [inhibitor, partial curve, poor fit] | 
42 | CC1CCN(C2=NC(=O)/C(=C/c3cn[nH]c3-c3ccccc3)S2)CC1 | inconclusive: 14.1 µM [inhibitor, partial curve, poor fit] | 
43 | COc1cccc(-c2cc(C(=O)Nc3ccc(F)cc3)[nH]n2)c1 | inactive | 
44 | CCn1c(CNc2ccc(OC)cc2)nnc1SCC(=O)N1CCCc2ccccc21 | inconclusive: 25.1 µM [inhibitor, single point] | 
45 | CC(C)CCN1CCN(Cc2nc(-c3ccc(F)cc3)cs2)CC1CCO (configuration not stated) | inconclusive: 79.4 µM [inhibitor, partial curve, poor fit] | 
46 | O=C(NNC(=O)c1cc2ccccc2o1)c1ccc(F)cc1 |  | inactive: -7.81% [at 0.501 µM]

Row | SMILES | Potency | activity, negative = inhibition
47 | CCCc1cc(=O)[nH]c2nnc(SCC(=O)Nc3cccc(C)c3)n12 | inactive | 
48 | COc1ccc(Cc2nc(-c3cccnc3)no2)cc1OC |  | inactive: 3.69% [at 0.501 µM]
49 | O=C(O)COc1ccccc1/C=C1\SC(=S)N(c2cccnc2)C1=O | inconclusive: 50.1 µM [inhibitor, partial curve] | 
50 | CNC(=S)Nc1ccc(-c2nc3ccc(C)cc3s2)cc1 | inconclusive: 44.7 µM [inhibitor, partial curve, poor fit] | 
51 | CC(C)[C@@H]1NC(=O)N(c2ccc(Oc3ccccc3)cc2)C1=O | inactive | 
52 | COc1ccccc1C(=O)Nc1ccc2c(c1)nc1n2CCN(C2CCCCC2)C1 | active: 31.6 µM | 
53 | C[N+]1(CC(=O)OC2CCCCCCCCCCC2)CCCC1 | inconclusive: 31.6 µM [inhibitor, single point] | 
54 | NC(=O)c1ccc2c(=O)n3c(-c4cc(Cl)c(N)c(Cl)c4)csc3nc2c1 |  | inconclusive: -94.1% [inhibitor]
55 | Cc1cc(C)nc(NS(=O)(=O)c2ccc(Br)s2)c1 | active: 50.1 µM | 
56 | O=C(O)CCCC(=O)N1CCN(c2nc(-c3ccccc3)c3ccccc3n2)CC1 | inconclusive: 100 µM [inhibitor, single point] | 
57 | Cc1cccc(Nc2nc(-c3ccccc3)cs2)n1 | inconclusive: 89.1 µM [inhibitor, single point] | 
58 | COCCNC(=S)N1CCN(c2nc(-c3cccc(OC)c3)cs2)CC1 | inconclusive: 89.1 µM [inhibitor, single point] | 
59 | COc1ccc(-n2nnnc2SCC(=O)NNC(=O)c2ccc([N+](=O)[O-])cc2)cc1 | inconclusive: 70.8 µM [inhibitor, partial curve, poor fit] | 
60 | O=C(COC(=O)c1cncc(Br)c1)NC1CCCCCC1 | inconclusive: 50.1 µM [inhibitor, partial curve, poor fit] | 
61 | CN(C)S(=O)(=O)c1cccc(NC(=O)CCSc2ccc(Cl)cc2)c1 | inconclusive: 1.12 µM [inhibitor, partial curve, poor fit] | 
62 | Cc1ccc(N2C(=O)c3ccccc3C2Nc2ccc(S(=O)(=O)N3CCCCC3)cc2)nc1 (configuration not stated) | inconclusive: 39.8 µM [inhibitor, full curve, poor fit] | 
63 | CCn1c(SCC(=O)OCc2ccccc2)nc2c1c(=O)n(C)c(=O)n2C | inconclusive: 89.1 µM [inhibitor, single point] | 
64 | CCCCC1OC23CCCCC2C(C#N)(C(=N)O3)C1(C#N)C#N (configuration not stated) | inconclusive: 89.1 µM [inhibitor, partial curve, poor fit] | 
65 | CCc1ccccc1NC(=O)C1=CN2CCS(=O)(=O)N=C2C=C1 | inconclusive: 89.1 µM [inhibitor, partial curve, poor fit] | 
66 | COc1cc2cc(CCOC(=O)c3ccc(C#N)cc3)oc(=O)c2cc1OC |  | inactive: 10.2% [at 0.501 µM]
67 | COC(=O)CC(c1ccc(F)cc1)n1c(C)ccc1C (configuration not stated) | inconclusive: 79.4 µM [inhibitor, partial curve, poor fit] | 
